This assay concerns the target T1, CCR6 on transfected mouse myeloma NSO cells (UniProt P51684 1-374, limits assumed).
T1 construct: whole, on cells; also called CCR6-NSO
T1 sequence (looked up): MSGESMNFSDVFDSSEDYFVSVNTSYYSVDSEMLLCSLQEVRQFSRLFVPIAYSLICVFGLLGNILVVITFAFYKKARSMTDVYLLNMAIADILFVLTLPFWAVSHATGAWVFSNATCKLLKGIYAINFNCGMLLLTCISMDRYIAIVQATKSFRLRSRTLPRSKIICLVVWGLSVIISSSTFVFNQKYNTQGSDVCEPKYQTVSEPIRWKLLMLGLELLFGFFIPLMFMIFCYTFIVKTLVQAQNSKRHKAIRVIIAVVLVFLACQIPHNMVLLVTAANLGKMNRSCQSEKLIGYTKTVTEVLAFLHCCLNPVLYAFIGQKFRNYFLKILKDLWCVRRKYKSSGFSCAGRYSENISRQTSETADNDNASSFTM
Briefly: adhesion of receptor-expressing NSO cells to immobilized stalkokine.

B1: MIP3a-FRAC (MIP3alpha stalkokine) (ligand, not shown: small tags and cut ends)
chain: not shown
notes: mature; also called MIP3a (stalkokine form)
Regarding B1, the binding result is “binds”.

The record behind these values is patent publication US6699677 (CHEMOCENTRYX, dated 2004).
